Binding signal data for 31 molecules are collected here from paper PMC9911399, “Two distinct binding modes provide the RNA-binding protein RbFox with extraordinary sequence specificity”.

Residue numbers refer to the chain shown, from its start. The list shows a part of the results.

The chains are these.
T1: RBFOX1 RRM RbFoxmut (Fox-RRM*) (Homo sapiens, UniProt Q9NWB1 109-208, R118D;E147R;N151S;E152T)
T1 sequence: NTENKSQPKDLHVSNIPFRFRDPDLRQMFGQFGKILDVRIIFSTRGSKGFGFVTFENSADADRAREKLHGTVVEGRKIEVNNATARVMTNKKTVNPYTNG

B1: CCUUGGU (DNA:RNA)
RNA: GGGAGACCGGAAUUCAGAUUGUCCCCUUGGUUUAAAUCCCGUCGUAGCCACCA
DNA 1: CAATCTGAATTCCGGTCTCCC
DNA 2: TGGTGGCTACGACGGGATT
B2: CCCCAUC (DNA:RNA)
RNA: B1 RNA with U27C, U28C, G29A, G30U, U31C
DNA 1: CAATCTGAATTCCGGTCTCCC
DNA 2: TGGTGGCTACGACGGGATT
B3: UAAGUAG (DNA:RNA)
RNA: GGGAGACCGGAAUUCAGAUUGUCCUAAGUAGUUAAAUCCCGUCGUAGCCACCA
DNA 1: CAATCTGAATTCCGGTCTCCC
DNA 2: TGGTGGCTACGACGGGATT
B4: CUGGAUA (DNA:RNA)
RNA: B1 RNA with C26U, U27G, U28G, G29A, G30U, U31A
DNA 1: CAATCTGAATTCCGGTCTCCC
DNA 2: TGGTGGCTACGACGGGATT
B5: AACGAAA (DNA:RNA)
RNA: B3 RNA with U25A, A27C, U29A, G31A
DNA 1: CAATCTGAATTCCGGTCTCCC
DNA 2: TGGTGGCTACGACGGGATT
B6: GCCGCGC (DNA:RNA)
RNA: B1 RNA with C25G, U27C, U28G, G29C, U31C
DNA 1: CAATCTGAATTCCGGTCTCCC
DNA 2: TGGTGGCTACGACGGGATT
B7: UCUAGAA (DNA:RNA)
RNA: B1 RNA with C25U, U28A, G30A, U31A
DNA 1: CAATCTGAATTCCGGTCTCCC
DNA 2: TGGTGGCTACGACGGGATT
B8: GGUCAAC (DNA:RNA)
RNA: B1 RNA with C25G, C26G, U28C, G29A, G30A, U31C
DNA 1: CAATCTGAATTCCGGTCTCCC
DNA 2: TGGTGGCTACGACGGGATT
B9: AAAUGUG (DNA:RNA)
RNA: B3 RNA with U25A, G28U, U29G, A30U
DNA 1: CAATCTGAATTCCGGTCTCCC
DNA 2: TGGTGGCTACGACGGGATT
B10: CUCAUGC (DNA:RNA)
RNA: B1 RNA with C26U, U27C, U28A, G29U, U31C
DNA 1: CAATCTGAATTCCGGTCTCCC
DNA 2: TGGTGGCTACGACGGGATT
B11: AGGAACG (DNA:RNA)
RNA: B3 RNA with U25A, A26G, A27G, G28A, U29A, A30C
DNA 1: CAATCTGAATTCCGGTCTCCC
DNA 2: TGGTGGCTACGACGGGATT
B12: AGACAUU (DNA:RNA)
RNA: B1 RNA with C25A, C26G, U27A, U28C, G29A, G30U
DNA 1: CAATCTGAATTCCGGTCTCCC
DNA 2: TGGTGGCTACGACGGGATT
B13: UGGAUUU (DNA:RNA)
RNA: B3 RNA with A26G, A27G, G28A, A30U, G31U
DNA 1: CAATCTGAATTCCGGTCTCCC
DNA 2: TGGTGGCTACGACGGGATT
B14: UAUAAUC (DNA:RNA)
RNA: B3 RNA with A27U, G28A, U29A, A30U, G31C
DNA 1: CAATCTGAATTCCGGTCTCCC
DNA 2: TGGTGGCTACGACGGGATT
B15: GGUCGUA (DNA:RNA)
RNA: B1 RNA with C25G, C26G, U28C, G30U, U31A
DNA 1: CAATCTGAATTCCGGTCTCCC
DNA 2: TGGTGGCTACGACGGGATT
B16: GAGCCUC (DNA:RNA)
RNA: B3 RNA with U25G, A27G, G28C, U29C, A30U, G31C
DNA 1: CAATCTGAATTCCGGTCTCCC
DNA 2: TGGTGGCTACGACGGGATT
B17: AAAAUGC (DNA:RNA)
RNA: B3 RNA with U25A, G28A, A30G, G31C
DNA 1: CAATCTGAATTCCGGTCTCCC
DNA 2: TGGTGGCTACGACGGGATT
B18: GAGGCUU (DNA:RNA)
RNA: B3 RNA with U25G, A27G, U29C, A30U, G31U
DNA 1: CAATCTGAATTCCGGTCTCCC
DNA 2: TGGTGGCTACGACGGGATT
B19: GCACAGG (DNA:RNA)
RNA: B1 RNA with C25G, U27A, U28C, G29A, U31G
DNA 1: CAATCTGAATTCCGGTCTCCC
DNA 2: TGGTGGCTACGACGGGATT
B20: AGUUCAC (DNA:RNA)
RNA: B1 RNA with C25A, C26G, G29C, G30A, U31C
DNA 1: CAATCTGAATTCCGGTCTCCC
DNA 2: TGGTGGCTACGACGGGATT
B21: AGUGGAG (DNA:RNA)
RNA: B3 RNA with U25A, A26G, A27U, U29G
DNA 1: CAATCTGAATTCCGGTCTCCC
DNA 2: TGGTGGCTACGACGGGATT
B22: CACACAG (DNA:RNA)
RNA: B3 RNA with U25C, A27C, G28A, U29C
DNA 1: CAATCTGAATTCCGGTCTCCC
DNA 2: TGGTGGCTACGACGGGATT
B23: ACCCGUG (DNA:RNA)
RNA: B1 RNA with C25A, U27C, U28C, G30U, U31G
DNA 1: CAATCTGAATTCCGGTCTCCC
DNA 2: TGGTGGCTACGACGGGATT
B24: AUCUUUG (DNA:RNA)
RNA: B3 RNA with U25A, A26U, A27C, G28U, A30U
DNA 1: CAATCTGAATTCCGGTCTCCC
DNA 2: TGGTGGCTACGACGGGATT
B25: UGCACGC (DNA:RNA)
RNA: B1 RNA with C25U, C26G, U27C, U28A, G29C, U31C
DNA 1: CAATCTGAATTCCGGTCTCCC
DNA 2: TGGTGGCTACGACGGGATT
B26: UCAGACC (DNA:RNA)
RNA: B3 RNA with A26C, U29A, A30C, G31C
DNA 1: CAATCTGAATTCCGGTCTCCC
DNA 2: TGGTGGCTACGACGGGATT
B27: CUAUCGG (DNA:RNA)
RNA: B1 RNA with C26U, U27A, G29C, U31G
DNA 1: CAATCTGAATTCCGGTCTCCC
DNA 2: TGGTGGCTACGACGGGATT
B28: GGCGCUA (DNA:RNA)
RNA: B3 RNA with U25G, A26G, A27C, U29C, A30U, G31A
DNA 1: CAATCTGAATTCCGGTCTCCC
DNA 2: TGGTGGCTACGACGGGATT
B29: AUCGGAG (DNA:RNA)
RNA: B3 RNA with U25A, A26U, A27C, U29G
DNA 1: CAATCTGAATTCCGGTCTCCC
DNA 2: TGGTGGCTACGACGGGATT
B30: AAGCUAC (DNA:RNA)
RNA: B3 RNA with U25A, A27G, G28C, G31C
DNA 1: CAATCTGAATTCCGGTCTCCC
DNA 2: TGGTGGCTACGACGGGATT
B31: AUGUACG (DNA:RNA)
RNA: B1 RNA with C25A, C26U, U27G, G29A, G30C, U31G
DNA 1: CAATCTGAATTCCGGTCTCCC
DNA 2: TGGTGGCTACGACGGGATT

The target of this experiment is T1, RBFOX1 RRM RbFoxmut (Fox-RRM*). The experiment in a line: EMSA; HiTS-Eq, 1 nM pool, 10 min; buffer printed only for the single-RNA assays: 10 mM Tris pH 7.5, 150 mM NaCl, 3.4 mM EDTA, 0.001% NP-40, 30 C. Particulars: tags: His6 N-terminal (pET28a); label: 5' 32P. The essentials: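 These values rest on relative association constants, computed from read-count changes of each RNA species versus the control reaction and normalised to the cognate motif. Reads came from free RNA recovered by 8% native PAGE after purified RbFox RRM (wild type or mutant) at increasing concentrations was equilibrated for 10 min in 50 µL with 1 nM of a 5′-radiolabelled pool with 7 randomized nucleotides and DNA-annealed flanks.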
Background: In EMSA bound probe runs differently from free probe, usually more slowly.
Turning to B1, the binding signal is 0.154 KA relative to UGCAUGU.
With B2, the binding signal is 0.102 KA relative to UGCAUGU.
In the case of B3 it was 0.107 KA relative to UGCAUGU; in that of B4, 0.0878 KA relative to UGCAUGU; in that of B5, 0.113 KA relative to UGCAUGU.
As for B6, the figure is 0.0855 KA relative to UGCAUGU.
On to B7, for which the binding signal is 0.096 KA relative to UGCAUGU.
As for B8, the figure is 0.052 KA relative to UGCAUGU; as for B9, 0.107 KA relative to UGCAUGU.
In the case of B10 it was 0.112 KA relative to UGCAUGU; in that of B11, 0.576 KA relative to UGCAUGU; in that of B12, 0.0594 KA relative to UGCAUGU.
As for B13, the figure is 0.0654 KA relative to UGCAUGU.
B14: the binding signal is 0.0553 KA relative to UGCAUGU.
As for B15, the figure is 0.122 KA relative to UGCAUGU; as for B16, 0.061 KA relative to UGCAUGU.
As for B17, the figure is 0.0633 KA relative to UGCAUGU; as for B18, 0.0844 KA relative to UGCAUGU; as for B19, 0.115 KA relative to UGCAUGU.
Turning to B20, the binding signal was 0.079 KA relative to UGCAUGU.
As for B21, the figure is 0.124 KA relative to UGCAUGU; as for B22, 0.0853 KA relative to UGCAUGU; as for B23, 0.111 KA relative to UGCAUGU.
As to B24, the binding signal was 0.132 KA relative to UGCAUGU.
In the case of B25 it was 0.232 KA relative to UGCAUGU; in that of B26, 0.0827 KA relative to UGCAUGU.
As for B27, the binding signal is 0.0809 KA relative to UGCAUGU.
As for B28, the figure is 0.0705 KA relative to UGCAUGU.
As to B29, the binding signal was 0.132 KA relative to UGCAUGU.
In the case of B30 it was 0.126 KA relative to UGCAUGU.
In the case of B31 it was 0.322 KA relative to UGCAUGU.
